# Experimental data reported in PubChem BioAssay (NCATS).
# “And” between values parts separate entries of the source, which are not always exact repeats. Equal entries are not always repeated. The inconclusive results got no clear call from the source; some entries with a clear call stand among them for comparison. A potency beside an inconclusive call is a rough fit, not a confirmed value. The source made the active and inactive calls. The call rests on the fitted dose curve; in most records, active means well fitted inhibition curve with a large enough effect; inconclusive means small, poorly fitted or top-dose-only effect; inactive means flat fitted curve, though single readings scatter.
# System: MCC-26
# Test: qHTS assay to identify novel small-molecules to repurpose for Merkel cell carcinoma treatment (AID 1296009); further: nearly all actives have a fitted effect of over 60% in size
# Conditions: MCC and control cell lines, CellTiter-Glo viability, 72 h; series mostly up to 46 µM; activity change, negative = cytotoxicity: at the top concentration
# Procedure, shortened: (§1)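 Cell viability measured by CellTiter-Glo following 72 hr compound treatment at 37 degree celsius, with NPC and MIPE libraries tested in 8- and 11-point concentration series.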
# On the % scale 0 is the no-effect control and ±100 the full control effect; potency means the concentration at half of the fitted maximal effect; tags describe the fitted curve by direction and shape.
SMILES,Potency,"activity change, negative = cytotoxicity"
COc1ccc2c(c1)CC[C@@H](CN(C)CC(=O)O)[C@H]2c1ccccc1,"inconclusive: 9.35 µM [inhibitor, full curve]",–
COC(=O)Nc1nc2ccc(C(=O)c3ccccc3)cc2[nH]1,"inconclusive: 473 nM [inhibitor, full curve] and inconclusive: 4.69 µM [inhibitor, full curve]",–
O=C1[C@H](Cc2ccc(O)cc2)N2C(=O)CCN(C(=O)NCc3ccccc3)[C@H]2CN1Cc1cccc2ccccc12,–,inactive: -13.1%
c1nc2nc(Nc3ccc(N4CCOCC4)cc3)nc(NC3CCCCC3)c2[nH]1,"inconclusive: 26.4 µM [inhibitor, single point]",–

# System: MKL-1
# Test: as above
# Conditions: MCC and control cell lines, CellTiter-Glo viability, 72 h; series mostly up to 46 µM; activity change, negative = cytotoxicity: at the top concentration
# Procedure, shortened: as §1
row,SMILES,Potency
1,COc1cc(OC2CCN(C)CC2)ccc1Nc1ncc2c(n1)n(C1CCCC1)c(=O)n2C,"inconclusive: 20.9 µM [inhibitor, partial curve]"
2,CN(C)CCCN1c2ccccc2CCc2ccc(Cl)cc21,"inconclusive: 23.7 µM [inhibitor, single point]"
3,Nc1ccc(C(=O)c2cc3c(ccc4ccccc43)[nH]2)cc1,"inconclusive: 7.43 µM [inhibitor, full curve]"
4,COc1cccc2c1C(=O)c1c(O)c3c(c(O)c1C2=O)C[C@@](O)(C(=O)CO)C[C@@H]3O[C@H]1C[C@H](N)[C@@H](O)[C@H](C)O1,active: 0.166 µM
5,O=C(O)c1ccc(-n2nc(-c3ccccc3O)nc2-c2ccccc2O)cc1,"inconclusive: 15 µM [inhibitor, partial curve] and inconclusive: 16.6 µM [inhibitor, partial curve, poor fit]"
6,CN(C)CCCNC(=O)c1ccc(-c2cc(O)c3ncccc3c2)cc1,"inconclusive: 26.4 µM [inhibitor, single point]"
7,CCc1cc(-c2n[nH]c(C)c2-c2ccc3c(c2)OCCO3)c(O)cc1O,"inconclusive: 9.35 µM [inhibitor, full curve]"
8,c1nc2nc(Nc3ccc(N4CCOCC4)cc3)nc(NC3CCCCC3)c2[nH]1,"inconclusive: 3.72 µM [inhibitor, full curve]"
9,Cc1csc(-c2nnc(Nc3ccc(Oc4ncccc4-c4ccnc(N)n4)cc3)c3ccccc23)c1,"inconclusive: 0.0296 µM [inhibitor, full curve]"

# System: MKL-2
# Test: as above
# Conditions: MCC and control cell lines, CellTiter-Glo viability, 72 h; activity change, negative = cytotoxicity: at 46 µM (top of the series)
# Procedure, shortened: as §1
SMILES,"activity change, negative = cytotoxicity",Potency
CC(C)Oc1ccc(C(=O)N[C@H](CNC(=O)CN(C)C)Cc2ccc(-c3cn4cccc([C@H](C)O)c4n3)cc2)cc1Cl,inactive: -27.6%,–
COc1cc(OC2CCN(C)CC2)ccc1Nc1ncc2c(n1)n(C1CCCC1)c(=O)n2C,inconclusive: -35.8% [inhibitor],–
C=CC(=O)N1CCc2ccc(-n3c(=O)ccc4cnc5ccc(-c6cnn(C)c6)cc5c43)cc21,–,active: 1.87 µM
CN(C)CCCN1c2ccccc2CCc2ccc(Cl)cc21,–,"active: 18.7 µM and inconclusive: 18.8 µM [inhibitor, single point]"
Nc1ccc(C(=O)c2cc3c(ccc4ccccc43)[nH]2)cc1,–,"inconclusive: 14.8 µM [inhibitor, partial curve, poor fit]"
O=C(O)c1ccc(-n2nc(-c3ccccc3O)nc2-c2ccccc2O)cc1,–,"inconclusive: 8.41 µM [inhibitor, partial curve, poor fit] and inconclusive: 10.5 µM [inhibitor, full curve]"
CN(C)CCCNC(=O)c1ccc(-c2cc(O)c3ncccc3c2)cc1,–,"inconclusive: 37.2 µM [inhibitor, single point]"
COc1ccc2c(c1)CC[C@@H](CN(C)CC(=O)O)[C@H]2c1ccccc1,–,"inconclusive: 3.32 µM [inhibitor, full curve, poor fit]"
COC(=O)Nc1nc2ccc(C(=O)c3ccccc3)cc2[nH]1,–,"inconclusive: 299 nM [inhibitor, full curve, poor fit] and inconclusive: 5.26 µM [inhibitor, partial curve, poor fit]"
O=C1[C@H](Cc2ccc(O)cc2)N2C(=O)CCN(C(=O)NCc3ccccc3)[C@H]2CN1Cc1cccc2ccccc12,–,"inconclusive: 10.5 µM [inhibitor, full curve, poor fit]"
c1nc2nc(Nc3ccc(N4CCOCC4)cc3)nc(NC3CCCCC3)c2[nH]1,–,active: 16.6 µM
Cc1oc(=O)oc1CN1CCN(c2cc3c(cc2F)c(=O)c(C(=O)O)c2n3C(C)S2)CC1 (stereo unspecified),–,inactive
Cc1csc(-c2nnc(Nc3ccc(Oc4ncccc4-c4ccnc(N)n4)cc3)c3ccccc23)c1,–,"inconclusive: 9.35 µM [inhibitor, partial curve, poor fit]"

# System: UISO
# Test: as above
# Conditions: MCC and control cell lines, CellTiter-Glo viability, 72 h; series mostly up to 46 µM; activity change, negative = cytotoxicity: at the top concentration
# Procedure, shortened: as §1
SMILES,Potency,"activity change, negative = cytotoxicity"
CC(C)Oc1ccc(C(=O)N[C@H](CNC(=O)CN(C)C)Cc2ccc(-c3cn4cccc([C@H](C)O)c4n3)cc2)cc1Cl,"inconclusive: 0.372 µM [inhibitor, full curve]",–
COc1cc(OC2CCN(C)CC2)ccc1Nc1ncc2c(n1)n(C1CCCC1)c(=O)n2C,"inconclusive: 10.5 µM [inhibitor, partial curve]",–
CC(=O)O[C@H]1C(=O)[C@@]2(C)C([C@H](OC(=O)c3ccccc3)[C@]3(O)C[C@H](OC(=O)[C@H](O)[C@@H](NC(=O)c4ccccc4)c4ccccc4)C(C)=C1C3(C)C)[C@]1(OC(C)=O)CO[C@@H]1C[C@@H]2O (stereo partly specified),"inconclusive: 0.0013 µM [inhibitor, full curve, poor fit]",–
CN(C)CCCN1c2ccccc2CCc2ccc(Cl)cc21,"inconclusive: 26.4 µM [inhibitor, single point]",–
CCN1CCN(c2ccc(Nc3cc(N(C)C(=O)Nc4c(Cl)c(OC)cc(OC)c4Cl)ncn3)cc2)CC1,"inconclusive: 18.7 µM [inhibitor, single point]",–
Nc1ccc(C(=O)c2cc3c(ccc4ccccc43)[nH]2)cc1,"inconclusive: 1.87 µM [inhibitor, full curve]",–
O=C(O)c1ccc(-n2nc(-c3ccccc3O)nc2-c2ccccc2O)cc1,"inconclusive: 15 µM [inhibitor, partial curve] and inconclusive: 10.5 µM [inhibitor, full curve]",–
CCc1c2c(nc3ccc(OC(=O)N4CCC(N5CCCCC5)CC4)cc13)-c1cc3c(c(=O)n1C2)COC(=O)[C@]3(O)CC,"inconclusive: 0.473 µM [inhibitor, partial curve]",–
CN(C)CCCNC(=O)c1ccc(-c2cc(O)c3ncccc3c2)cc1,"inconclusive: 23.5 µM [inhibitor, single point]",–
CCc1cc(-c2n[nH]c(C)c2-c2ccc3c(c2)OCCO3)c(O)cc1O,"inconclusive: 10.5 µM [inhibitor, full curve]",–
COc1ccc2c(c1)CC[C@@H](CN(C)CC(=O)O)[C@H]2c1ccccc1,"inconclusive: 3.32 µM [inhibitor, full curve]",–
COC(=O)Nc1nc2ccc(C(=O)c3ccccc3)cc2[nH]1,"inconclusive: 84.1 nM [inhibitor, full curve] and active: 4.18 µM",–
O=C1[C@H](Cc2ccc(O)cc2)N2C(=O)CCN(C(=O)NCc3ccccc3)[C@H]2CN1Cc1cccc2ccccc12,active: 4.69 µM,–
CN(C)c1nc(Cc2ccc(NC(=O)c3ccc(C(F)(F)F)cc3)cc2)nc(N(C)C)c1CC(=O)O,–,inactive: -2.42%
c1nc2nc(Nc3ccc(N4CCOCC4)cc3)nc(NC3CCCCC3)c2[nH]1,"inconclusive: 3.72 µM [inhibitor, partial curve, poor fit]",–
